Source: article PMC10196804
These are yes or no findings as the source states them, for the method shown. For some assays here: In cells and extracts the contact can be indirect. Some binding calls cover weakened binding; strength is not graded here. Values belong to the substance of their own block, whether it stands above or below them.

Sequences of proteins named here, by UniProt entry; tags and fusion partners are left off. A change or cut given only in a name is not applied to a line headed by its entry. A line that says so, or that is headed by a name, gives the form on record, which may keep a tag or linker. Residues count along the entry.
myc-HERC2 (amino acids 2292–2923) (O95714, residues 2292-2923): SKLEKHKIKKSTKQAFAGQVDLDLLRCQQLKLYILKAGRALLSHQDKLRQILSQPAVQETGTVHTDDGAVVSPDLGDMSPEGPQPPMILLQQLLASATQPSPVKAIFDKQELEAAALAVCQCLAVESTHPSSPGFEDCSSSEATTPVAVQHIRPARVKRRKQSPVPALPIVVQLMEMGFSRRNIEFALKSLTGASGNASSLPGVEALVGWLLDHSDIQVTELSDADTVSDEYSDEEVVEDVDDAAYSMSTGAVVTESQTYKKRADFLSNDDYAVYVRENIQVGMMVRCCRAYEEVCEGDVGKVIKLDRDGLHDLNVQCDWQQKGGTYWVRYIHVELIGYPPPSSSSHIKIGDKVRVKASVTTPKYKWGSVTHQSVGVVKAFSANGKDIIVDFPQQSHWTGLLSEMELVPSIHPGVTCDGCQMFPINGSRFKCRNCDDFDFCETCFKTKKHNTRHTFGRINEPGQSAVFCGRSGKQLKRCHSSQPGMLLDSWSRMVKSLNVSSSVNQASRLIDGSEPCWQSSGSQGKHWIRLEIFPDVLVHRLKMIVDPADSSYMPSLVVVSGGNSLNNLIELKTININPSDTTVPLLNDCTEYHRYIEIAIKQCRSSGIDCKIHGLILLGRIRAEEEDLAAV
His-HERC2 (amino acids 2540–2700) (O95714, residues 2540-2700): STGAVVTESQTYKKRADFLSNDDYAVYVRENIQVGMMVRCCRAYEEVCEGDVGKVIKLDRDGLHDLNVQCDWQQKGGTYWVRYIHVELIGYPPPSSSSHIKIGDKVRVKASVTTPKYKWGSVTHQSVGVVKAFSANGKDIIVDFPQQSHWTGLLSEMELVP
UniProt Q13772: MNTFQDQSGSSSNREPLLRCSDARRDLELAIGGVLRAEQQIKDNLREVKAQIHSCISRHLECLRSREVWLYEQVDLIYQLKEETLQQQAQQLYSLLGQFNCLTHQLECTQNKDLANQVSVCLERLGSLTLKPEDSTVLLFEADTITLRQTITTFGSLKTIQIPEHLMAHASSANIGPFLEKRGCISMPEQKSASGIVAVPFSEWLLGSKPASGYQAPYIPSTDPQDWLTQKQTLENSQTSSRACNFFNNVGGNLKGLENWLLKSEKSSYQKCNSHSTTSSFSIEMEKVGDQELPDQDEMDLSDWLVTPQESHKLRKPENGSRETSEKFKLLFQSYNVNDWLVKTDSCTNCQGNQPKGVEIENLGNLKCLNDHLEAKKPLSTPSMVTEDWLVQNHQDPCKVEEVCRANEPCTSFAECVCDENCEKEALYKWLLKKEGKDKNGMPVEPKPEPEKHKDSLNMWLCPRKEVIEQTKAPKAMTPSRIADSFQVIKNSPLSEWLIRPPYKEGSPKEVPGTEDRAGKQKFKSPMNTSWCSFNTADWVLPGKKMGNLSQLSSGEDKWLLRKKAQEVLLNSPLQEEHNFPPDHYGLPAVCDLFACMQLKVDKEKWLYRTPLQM
GST-NCOA4 (amino acids 383–522) C416S (Q13772, form named): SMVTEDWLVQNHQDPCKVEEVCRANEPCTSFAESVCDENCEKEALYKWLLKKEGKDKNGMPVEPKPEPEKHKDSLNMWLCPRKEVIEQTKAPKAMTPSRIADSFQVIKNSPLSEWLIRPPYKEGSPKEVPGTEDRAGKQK
GST-NCOA4 (amino acids 383–522) C410S (Q13772, form named): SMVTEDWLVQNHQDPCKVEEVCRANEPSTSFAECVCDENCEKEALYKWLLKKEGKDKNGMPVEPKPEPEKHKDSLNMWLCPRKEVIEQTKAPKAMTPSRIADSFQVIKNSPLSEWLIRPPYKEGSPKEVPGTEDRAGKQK
GST-NCOA4 (amino acids 383–522) C404S (Q13772, form named): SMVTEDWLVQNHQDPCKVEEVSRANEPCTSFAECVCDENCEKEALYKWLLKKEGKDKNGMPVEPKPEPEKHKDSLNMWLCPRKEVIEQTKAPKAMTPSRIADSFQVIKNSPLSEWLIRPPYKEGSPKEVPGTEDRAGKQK
GST-NCOA4 (amino acids 383–522) C422S (Q13772, form named): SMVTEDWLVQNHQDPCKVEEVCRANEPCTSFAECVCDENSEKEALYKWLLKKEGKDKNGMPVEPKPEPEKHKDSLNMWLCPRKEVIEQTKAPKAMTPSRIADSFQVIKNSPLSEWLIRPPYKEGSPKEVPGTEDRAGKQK

Key:
[1] = target: FLAG-hHERC2 (amino acids 2292–2923) (human) (UniProt O95714); assay: co-IP; HEK293T cells transfected with control siRNA and FLAG-hHERC2 (amino acids 2292–2923), 25 μg/ml FAC for 3 h; anti-FLAG immunoprecipitation; endogenous NCOA4 detected by immunoblot
[2] = target: FLAG-hHERC2 (amino acids 2292–2923) (human) (UniProt O95714); assay: co-IP; as a3, but cells transfected with ISCU-specific siRNAs (knockdown of Fe–S cluster biogenesis), 25 μg/ml FAC for 3 h; anti-FLAG immunoprecipitation; endogenous NCOA4 detected by immunoblot
FLAG-NCOA4 C410S (human) = FLAG-NCOA4 C410S (human) (UniProt Q13772); assay: co-IP; HEK293T cells co-transfected with FLAG-NCOA4 (WT or mutant) and myc-HERC2 (amino acids 2292–2923), treated with Dfo or FAC; anti-FLAG antibody and Protein A beads on Triton X-100 soluble lysate, 4 °C; myc-HERC2 detected by immunoblot
FLAG-NCOA4 C404S (human) = FLAG-NCOA4 C404S (human) (UniProt Q13772); assay: as above
[3] = target: FLAG-NCOA4 WT (nuclear receptor coactivator 4) (human) (UniProt Q13772); assay: as above
FLAG-NCOA4 C422S (human) = FLAG-NCOA4 C422S (human) (UniProt Q13772); assay: as above
FLAG-NCOA4 C416S (human) = FLAG-NCOA4 C416S (human) (UniProt Q13772); assay: as above
[4] = target: GST-NCOA4 (amino acids 383–522) C416S (human) (UniProt Q13772); assay: condition: 2.8 μg His-HERC2 and 2 μg GST protein in 800 μl; pull-down; GST-tagged proteins (2 μg) and His-HERC2 (amino acids 2540–2700) (2.8 μg) in 20 mM Tris–HCl pH 7.5, 150 mM NaCl, 0.1% Triton X-100, 1 mM DTT; Glutathione Sepharose beads, 1 h at 4 °C; gel stained with CBB; both purified
[5] = target: GST-NCOA4 (amino acids 383–522) C410S (human) (UniProt Q13772); assay: as above
[6] = target: GST-NCOA4 (amino acids 383–522) C404S (human) (UniProt Q13772); assay: as above
[7] = target: GST-NCOA4 (amino acids 383–522) C422S (human) (UniProt Q13772); assay: as above

binding [1]: binds
Substance: endogenous NCOA4 (from UniProt Q13772 1-614)
binding [2]: no binding (condition: with siRNA knockdown of ISCU)

binding (FLAG-NCOA4 C410S (human)): no binding
binding (FLAG-NCOA4 C404S (human)): no binding
binding [3]: binds
binding (FLAG-NCOA4 C422S (human)): no binding
binding (FLAG-NCOA4 C416S (human)): no binding
Substance: myc-HERC2 (amino acids 2292–2923) (from UniProt O95714 2292-2923) (domain or fragment)

binding [4]: no binding
binding [5]: no binding
binding [6]: no binding
binding [7]: no binding
Substance: His-HERC2 (amino acids 2540–2700) (from UniProt O95714 2540-2700) (domain or fragment)
